In the supplement of paper PMC8728848:
This is one part of the list.

Tests used:
Experiment in all cases: glycan array binding signal (z-score within array); higher = stronger binding
Details in all cases: glycan notation: IUPAC condensed, linker removed; mutation: I144G
[1] = molecular target: Gal(b1-4)GlcNAc(b1-3)Gal(b1-4)GlcNAc(b1-3)[Gal(b1-4)GlcNAc(b1-3)Gal(b1-4)GlcNAc(b1-6)]GalNAc
Method in brief: (§1)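 Glycan array data came from 3228 arrays in the Consortium for Functional Glycomics database, and only arrays with an available protein sequence were kept. Glycan names were put into IUPAC-condensed notation, and columns mapping to the same glycan were averaged. The binding signal is a within-array Z-score, averaged across arrays of one protein sequence run at different concentrations or buffers and across linkers. A negative Z-score can be read as non-binding.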

[2] = molecular target: Gal(b1-4)GlcNAc(b1-3)Gal(b1-4)GlcNAc(b1-6)[Gal(b1-3)]GalNAc
Method in brief: as §1

[3] = molecular target: Gal(b1-4)GlcNAc(b1-3)Gal(b1-4)[Fuc(a1-3)]GlcNAc(b1-3)Gal(b1-4)[Fuc(a1-3)]GlcNAc
Method in brief: as §1

[4] = molecular target: Gal(b1-4)GlcNAc(b1-3)GalNAc
Method in brief: as §1

[5] = molecular target: Gal(b1-4)GlcNAc(b1-3)[Fuc(a1-3)GlcNAc(b1-6)]Gal(b1-4)Glc
Method in brief: as §1

[6] = molecular target: Gal(b1-4)GlcNAc(b1-3)[Gal(b1-4)GlcNAc(b1-6)]Gal(b1-4)GlcNAc
Method in brief: as §1

[7] = molecular target: Gal(b1-4)GlcNAc(b1-3)[GlcNAc(b1-6)]Gal(b1-4)GlcNAc
Method in brief: as §1

[8] = molecular target: Gal(b1-4)GlcNAc(b1-6)Gal(b1-4)GlcNAc
Method in brief: as §1

[9] = molecular target: Gal(b1-4)GlcNAc(b1-6)GalNAc
Method in brief: as §1

[10] = molecular target: Gal(b1-4)GlcNAc(b1-6)[Gal(b1-3)]GalNAc
Method in brief: as §1

[11] = molecular target: Gal(b1-4)GlcNAc(b1-6)[Gal(b1-4)GlcNAc(b1-3)]GalNAc
Method in brief: as §1

Gal(b1-4)GlcNAc6P = molecular target: Gal(b1-4)GlcNAc6P
Method in brief: as §1

Gal(b1-6)Gal = molecular target: Gal(b1-6)Gal
Method in brief: as §1

Gal3S(b1-3)GalNAc = molecular target: Gal3S(b1-3)GalNAc
Method in brief: as §1

Gal3S(b1-3)GlcNAc = molecular target: Gal3S(b1-3)GlcNAc
Method in brief: as §1

[12] = molecular target: Gal3S(b1-3)[Fuc(a1-4)]GlcNAc
Method in brief: as §1

Gal3S(b1-4)Glc = molecular target: Gal3S(b1-4)Glc
Method in brief: as §1

Gal3S(b1-4)Glc6S = molecular target: Gal3S(b1-4)Glc6S
Method in brief: as §1

Gal3S(b1-4)GlcNAc = molecular target: Gal3S(b1-4)GlcNAc
Method in brief: as §1

[13] = molecular target: Gal3S(b1-4)[Fuc(a1-3)]Glc6S
Method in brief: as §1

[14] = molecular target: Gal3S(b1-4)[Fuc(a1-3)]GlcNAc
Method in brief: as §1

[15] = molecular target: Gal3S(b1-4)[Fuc(a1-3)]GlcNAc6S
Method in brief: as §1

Gal3S4S(b1-4)GlcNAc = molecular target: Gal3S4S(b1-4)GlcNAc
Method in brief: as §1

Gal3S6S(b1-4)GlcNAc = molecular target: Gal3S6S(b1-4)GlcNAc
Method in brief: as §1

Gal3S6S(b1-4)GlcNAc6S = molecular target: Gal3S6S(b1-4)GlcNAc6S
Method in brief: as §1

Gal4S(b1-4)GlcNAc = molecular target: Gal4S(b1-4)GlcNAc
Method in brief: as §1

Gal4S6S(b1-4)GlcNAc = molecular target: Gal4S6S(b1-4)GlcNAc
Method in brief: as §1

Gal6P(b1-4)GlcNAc = molecular target: Gal6P(b1-4)GlcNAc
Method in brief: as §1

Gal6S(b1-3)GlcNAc = molecular target: Gal6S(b1-3)GlcNAc
Method in brief: as §1

Gal6S(b1-3)GlcNAc6S = molecular target: Gal6S(b1-3)GlcNAc6S
Method in brief: as §1

Gal6S(b1-4)Glc = molecular target: Gal6S(b1-4)Glc
Method in brief: as §1

Gal6S(b1-4)Glc6S = molecular target: Gal6S(b1-4)Glc6S
Method in brief: as §1

Gal6S(b1-4)GlcNAc = molecular target: Gal6S(b1-4)GlcNAc
Method in brief: as §1

Gal6S(b1-4)GlcNAc6S = molecular target: Gal6S(b1-4)GlcNAc6S
Method in brief: as §1

GalNAc(a1-3)Gal = molecular target: GalNAc(a1-3)Gal
Method in brief: as §1

GalNAc(a1-3)GalNAc = molecular target: GalNAc(a1-3)GalNAc
Method in brief: as §1

[16] = molecular target: GalNAc(a1-3)GalNAc(b1-3)Gal(a1-4)Gal(b1-4)Glc
Method in brief: as §1

[17] = molecular target: GalNAc(a1-3)GalNAc(b1-3)Gal(a1-4)Gal(b1-4)GlcNAc
Method in brief: as §1

GalNAc(b1-3)Gal = molecular target: GalNAc(b1-3)Gal
Method in brief: as §1

[18] = molecular target: GalNAc(b1-3)Gal(a1-4)Gal(b1-4)GlcNAc
Method in brief: as §1

[19] = molecular target: GalNAc(b1-3)Gal(a1-4)Gal(b1-4)GlcNAc(b1-3)Gal(b1-4)Glc
Method in brief: as §1

[20] = molecular target: GalNAc(b1-3)Gal(a1-6)Gal(b1-4)Glc
Method in brief: as §1

GalNAc(b1-3)GalNAc = molecular target: GalNAc(b1-3)GalNAc
Method in brief: as §1

GalNAc(b1-3)GlcNAc = molecular target: GalNAc(b1-3)GlcNAc
Method in brief: as §1

GalNAc(b1-4)Gal(b1-4)Glc = molecular target: GalNAc(b1-4)Gal(b1-4)Glc
Method in brief: as §1

B1: rAAL-I144G (Agrocybe aegerita), Q6WY08 (protein)
chain: MQGVNIYNISAGTSVDLAAPVTTGDIVTFFSSALNLNAGAGNPNNTTLNLFAENGAYLLHIAFRLQENVIIFNSRQPDGPWLVEQRVSDVANQFAGIDGKAMVTVFDHGDKYQVVINEKTVIQYTKQISGLTLSLSYNATEETSGFSTVVEAVTYTGLALEHHHHHH
[1]
  glycan array binding signal (z-score): -0.018
[2]
  glycan array binding signal (z-score): -0.066
[3]
  glycan array binding signal (z-score): -0.165
[4]
  glycan array binding signal (z-score): -0.144
[5]
  glycan array binding signal (z-score): -0.055
[6]
  glycan array binding signal (z-score): -0.192
[7]
  glycan array binding signal (z-score): -0.214
[8]
  glycan array binding signal (z-score): -0.152
[9]
  glycan array binding signal (z-score): -0.131
[10]
  glycan array binding signal (z-score): -0.14
[11]
  glycan array binding signal (z-score): -0.177
Gal(b1-4)GlcNAc6P
  glycan array binding signal (z-score): -0.201
Gal(b1-6)Gal
  glycan array binding signal (z-score): -0.193
Gal3S(b1-3)GalNAc
  glycan array binding signal (z-score): 17.3
Gal3S(b1-3)GlcNAc
  glycan array binding signal (z-score): -0.151
[12]
  glycan array binding signal (z-score): -0.113
Gal3S(b1-4)Glc
  glycan array binding signal (z-score): -0.035
Gal3S(b1-4)Glc6S
  glycan array binding signal (z-score): 0.763
Gal3S(b1-4)GlcNAc
  glycan array binding signal (z-score): 0.004
[13]
  glycan array binding signal (z-score): -0.002
[14]
  glycan array binding signal (z-score): -0.011
[15]
  glycan array binding signal (z-score): 0.087
Gal3S4S(b1-4)GlcNAc
  glycan array binding signal (z-score): -0.19
Gal3S6S(b1-4)GlcNAc
  glycan array binding signal (z-score): -0.161
Gal3S6S(b1-4)GlcNAc6S
  glycan array binding signal (z-score): -0.138
Gal4S(b1-4)GlcNAc
  glycan array binding signal (z-score): -0.146
Gal4S6S(b1-4)GlcNAc
  glycan array binding signal (z-score): -0.086
Gal6P(b1-4)GlcNAc
  glycan array binding signal (z-score): -0.119
Gal6S(b1-3)GlcNAc
  glycan array binding signal (z-score): -0.045
Gal6S(b1-3)GlcNAc6S
  glycan array binding signal (z-score): -0.118
Gal6S(b1-4)Glc
  glycan array binding signal (z-score): -0.085
Gal6S(b1-4)Glc6S
  glycan array binding signal (z-score): -0.214
Gal6S(b1-4)GlcNAc
  glycan array binding signal (z-score): -0.189
Gal6S(b1-4)GlcNAc6S
  glycan array binding signal (z-score): -0.134
GalNAc(a1-3)Gal
  glycan array binding signal (z-score): -0.21
GalNAc(a1-3)GalNAc
  glycan array binding signal (z-score): -0.105
[16]
  glycan array binding signal (z-score): -0.137
[17]
  glycan array binding signal (z-score): -0.175
GalNAc(b1-3)Gal
  glycan array binding signal (z-score): -0.071
[18]
  glycan array binding signal (z-score): -0.043
[19]
  glycan array binding signal (z-score): -0.146
[20]
  glycan array binding signal (z-score): -0.107
GalNAc(b1-3)GalNAc
  glycan array binding signal (z-score): -0.1
GalNAc(b1-3)GlcNAc
  glycan array binding signal (z-score): -0.152
GalNAc(b1-4)Gal(b1-4)Glc
  glycan array binding signal (z-score): -0.133
